Assay results taken from the supplement of paper PMC11417369.
The list shows a part of the results.

System: PfSIP2 AP2 domain 1 (GST-tagged)
Assay: gcPBM binding intensity (ln(normalized median fluorescence intensity)); higher = stronger DNA binding
Summary of the method: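 Using an Agilent 4 × 180k array, primer-extended double-stranded 36-bp intergenic genomic probes and negative controls were exposed for 1 h to GST-fused P. falciparum DNA-binding domains expressed in E. coli. Binding was carried out in 1× PBS with 1% milk, 0.2 mg/ml BSA, 0.5% salmon testes DNA and 0.03% Triton X-100, and protein was detected with Alexa488 anti-GST antibody and a 488 nm scan. Binding intensity is the highest Masliner-normalised natural-log median intensity across replicate spots of either probe orientation.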

Row | Sequence | gcPBM binding intensity (ln)
1 | AATACTTTTTTCTGTACACACTTGATTTACTATAAT [CACACA_site5544] | 7.29
2 | AAGAGTTAAAAAAATACACACATATAGATTTTTTTA [CACACA_site7018] | 6.74
3 | ATAAATAAAAAAGAAAGAAAGAAAGAAACAAACAAA [CACACA_negctrl_site1198] | 6.74
4 | TATTAATGCAAATGTTATATGTGCATACATAAATGT [CACACA_negctrl_site790] | 7.14
5 | TATTACATACATATCTGTACATATATTAATGCACAA [XGTACX_site3315] | 8.49
6 | AAAAATATTAAAAAAGGTACACAGCATATCTCTTTT [XGTACX_site65] | 6.85
7 | TATATCTGTAAATGCACACATATGTGGATATACTTA [CACACA_site5013] | 7.2
8 | GTTCATTCATTTTAATGTACAAATTTAACTTTTTCT [XGTACX_site680] | 6.91
9 | TATAAATATAAATACACACACATATAGATTATAGAT [CACACA_site6429] | 7.02
10 | TGCTACATTCTATGTACACACATATACATATATATA [CACACA_site893] | 7.35
11 | TCTAATAATATATACACACACATATATATTTATATA [CACACA_site2032] | 6.89
12 | TAAGACATGATATATACACACCTTGTTTTAATTTTC [CACACA_site5282] | 6.65
13 | AGAAATTATAAATACCTACACACTTATCAAAATAAA [CACACA_site2264] | 6.72
14 | GATAAAGTAAAAATATGTACATATATATTTTAAGTT [XGTACX_site6439] | 7.05
15 | TCTTTTCAATTATCCTATATTCTTTTATTTTTAATT [GTGCAC_negctrl_site326] | 7.12
16 | CATACACCCATACATACACACATACATACACCCATA [CACACA_site5124] | 7.3
17 | AACAAATAAAGCTATGACATGTTAAAATTGTTTCAC [XGTACX_negctrl_site67] | 6.8
18 | ATATCTAAATATATTACACACAGATATCTTCCTATA [CACACA_site3701] | 6.93
19 | ATAAAGGAATTTTATACACACAACATATAAATATAT [CACACA_site7365] | 6.97
20 | AGAGAAAAATATTTGGACAAAAATAATATAATATAT [CACACA_negctrl_site656] | 6.96
21 | ATTCGTATGAGCATAACACACAATATCGATATTTCT [CACACA_site4165] | 6.83
22 | AATTAAAATACAAATGTATGCATGTCTCATATAGAA [TGCATGCA_site822] | 6.78

Row | Sequence | gcPBM binding intensity (ln)
23 | TTACGAATTACATATTGTACATATGCACAATTTTAA [XGTACX_site6802] | 7.4
24 | TACATAATTTAAAATTTTATAAGTTGTAATTCGTTT [XGTACX_negctrl_site308] | 6.69
25 | ATAAAACAACAAAGAAAATGAAAAAGTAAAAACATA [CACACA_negctrl_site596] | 6.69
26 | TATTTATAAAAAGATTGTACATTTTTTATTATTGTA [XGTACX_site6016] | 7.01
27 | TCCTATAATAACGTCACACATTAAATTTAATAAATT [CACACA_site4506] | 6.99
28 | TATACAAAATATTTTACACACACATATATATACATA [CACACA_site2616] | 7.15
29 | CATTATTTATTTTAATGTACTTATTTTTAAATTGGT [XGTACX_site8038] | 7.07
30 | AAAAAAAAAAAAAAAACACACATATATCTATAATAT [CACACA_site6665] | 7.42
31 | AGTGCATACATGAATTGTACTTTAAAATAAATTCTA [XGTACX_site8156] | 8.19
32 | AAAATATAATATAATGCACACATAAACAAAAAAAAA [CACACA_site8161] | 7.26
33 | TTTTTTTTTTTTTTGGGTACATAATAATAACAAGTG [XGTACX_site1034] | 7.36
34 | TTTTATTTAACTCATAATTTTTTAAAAAACAATTAT [XGTACX_negctrl_site19] | 6.82
35 | CATGTAATATTAAACACACACTCATATAACTCAATA [CACACA_site4212] | 6.85
36 | CACATATACTTCTGTGCACACGAATATTTTTCTTCT [CACACA_site1408] | 9.1
37 | TTAACATTATATGAAGGTACAGAAAAAAAAAAATTA [XGTACX_site8530] | 6.92
38 | TTTCTTATAGATTTTAATCCTCTATCAAAAAAAGAA [GTGCAC_negctrl_site162] | 6.96
39 | CATACAGTATTATACTGTACCCATACAAAAAAATAT [XGTACX_site6130] | 7.21
40 | AAATAAAAAAAATTTGCACACCTTCAAAGTAATATA [CACACA_site1583] | 7.25
41 | CTTATTTAAGAGTATGAACACACATCATACACATAT [CACACA_site9205] | 6.95
42 | TTTTTAATATTCTATGCATGCATCGCATATTTGGTT [TGCATGCA_site1004] | 6.83
43 | TTTCATTGGTTTATAAAATTATGAGATCTTAAAGAC [CACACA_negctrl_site1484] | 7.22
44 | TCTGTAAAGTAATGGACACACAATATATCCATTTAT [CACACA_site1536] | 6.95

Row | Sequence | gcPBM binding intensity (ln)
45 | ATATATATATATATATGTACATATATTTATATTTAT [XGTACX_site6179] | 9.37
46 | GAATAATATGGACATACACACATATACATACAGATA [CACACA_site5200] | 7.25
47 | TTATATATCTATAATACACACATAATAATATATTTA [CACACA_site7423] | 6.91
48 | GCTACGTAAAAAATATGTACATATGAAATATTTTGC [XGTACX_site5111] | 7.09
49 | ATACATATATAAATACGTACATATATAATTATATAT [XGTACX_site8178] | 7.4
50 | AAATGAGAAGAAATACGTACATATAATAAAATAATT [XGTACX_site4439] | 7.06
51 | ATGCATAAATTTTGAAGTACAAAAAAAAAAAATAAA [XGTACX_site7282] | 6.98
52 | ATATATAATAAATACACACACATGTATTTATAAATA [CACACA_site5135] | 6.91
53 | TGAATTATAAATTATAGTACTTTATAATATGAACAT [XGTACX_site2317] | 6.81
54 | ATATAAATAAATTAGTGAAAAAAAAAAAATTTTTTT [CACACA_negctrl_site945] | 6.7
55 | CTCCATATGAAACACACACACAAATGAAAAAAATAT [CACACA_site3018] | 7.25
56 | AATTAACAAAGACACACACACACACGCACAAAAAAA [CACACA_site6388] | 7.26
57 | TTTAAAAAAATATATACACACATATATATATATATA [CACACA_site617] | 9.43
58 | ATAGAAATAAAATAAAATAAAAAAAAAATAATGAAA [CACACA_negctrl_site1565] | 6.85
59 | CATATATATATATATTGTACAAGATTGTTTTTTTAT [XGTACX_site3913] | 7.41
60 | ATGATCATAAGACACACACACAAAAAAAAAAAAAAA [CACACA_site6936] | 6.93
61 | TCTGTGCACGCATGAAGTACAAAAAAGGTTTCCAGT [XGTACX_site5049] | 9.78
62 | CTATATACTAAATGCACACTTATATATTTATATATA [CACACA_site2454] | 7.65
63 | TATATTTTTTTAATATGTACATATATATATAAAACA [XGTACX_site2171] | 7.28
64 | TAATTTTTATTTATAATAATATATGACATATATCCA [XGTACX_negctrl_site359] | 6.94
65 | ATGAACAAAATGTAATGTACGAATAATTATTCATAT [XGTACX_site4812] | 6.97
66 | TTAAGAATATCTACATGTACATACCAAAGAAATACA [XGTACX_site3125] | 7.31

Row | Sequence | gcPBM binding intensity (ln)
67 | TTTTATTCCTATTTATTTATATTTTTGTCTTATATC [CACACA_negctrl_site125] | 6.78
68 | TAATTTTTTTTTTTTTTTTTTTTTTTTTTTTTCCTT [CACACA_negctrl_site1095] | 6.82
69 | GGAATAATATAAAACACACACATAAATATAAATATA [CACACA_site3376] | 6.97
70 | TATAGACAAACACATACATGCATACATACATACATA [TGCATGCA_site273] | 7.08
71 | AAAAAAAAGTTCTACACACACAAAAAAATATTTTTT [CACACA_site2309] | 6.73
72 | GTGTGCTTTTTACGAGTGCAAGTATTTTGGTGGTTA [GTGCAC_site9496] | 9.35
73 | GTACACATATAATATACACACAACAAATATGCACAT [CACACA_site1010] | 8.85
74 | AATACATATTCAAAGGTGCAAAATAAAAATATACAT [GTGCAC_site9743] | 11
75 | TTATAATAAGATTGTTGTACTTATATTCCTTCTATA [XGTACX_site3173] | 6.89
76 | TGTTTTGTATATATAGCATGCAGTAAGGGAAAAAAA [TGCATGCA_site652] | 7.25
77 | TAGTTATAAGAGTTACAAAGAATACCGGAAATATAG [CACACA_negctrl_site1829] | 7.23
78 | TCGTTTCATATTTATCATGAGATAATCACACGAACA [TGCATGCA_negctrl_site497] | 7.18
79 | AATGTCAATTTTAATAGTACACAAATATATATATAT [XGTACX_site521] | 8.77
80 | AATGACCATTTTTAAAATTACAAATACATACAACTG [TGCATGCA_negctrl_site420] | 6.82
81 | AAGTATTATTATAAGACACACATGTATTTAAGTATA [CACACA_site4922] | 6.84
82 | TTATATATAGATCACACACACACACCGGTTTTAAAA [CACACA_site4220] | 6.93
83 | AAATTTTAATTAGGAACACACATATATATATATATA [CACACA_site5673] | 9.42
84 | TATTTATCTATATATTGTACTTATTAGTCTTAATGT [XGTACX_site4242] | 7.1
85 | TAAATTTATGGACACACACACATATATATATATATA [CACACA_site4620] | 9.35
86 | TCTTTTTTAATATAATATATTTTTATTAAGTAAATC [TGCATGCA_negctrl_site408] | 6.91
87 | TTTTCAGAAAAGAGAAACTTTATTTTTCACAACCGA [TGCATGCA_negctrl_site389] | 6.55
